# According to the supplement of paper PMC11417369:
# ± gives the standard deviation of the averaged measurements. The list shows a part of the results.
# Test system: PfAP2-I AP2 domain 3 (GST-tagged)
# Experiment: gcPBM binding intensity (ln(normalized median fluorescence intensity)); higher = stronger DNA binding
# In short: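 Binding of GST-tagged P. falciparum DNA-binding domains, expressed in E. coli and used at about 25 μg on average, was carried out for 1 h in 1× PBS containing 1% milk, 0.2 mg/ml BSA, 0.5% salmon testes DNA and 0.03% Triton X-100. The target was an Agilent 4 × 180k array of primer-extended double-stranded 36-bp intergenic genomic probes plus negative controls, read with Alexa488 anti-GST antibody at 488 nm. Binding intensity is the highest Masliner-normalised natural-log median intensity across replicate spots of either probe orientation.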
row,Sequence,gcPBM binding intensity (ln)
1,TACATATATTTAAGGAGTACAAAAAATAATGATAAA [XGTACX_site3539],8.15 ± 0.49
2,CATACACAGAAACACACACACATATATACATATATA [CACACA_site1094],7.67 ± 0.4
3,TCATATATATTGAAATGTACTTATTTTTTCCTCATA [XGTACX_site6526],7.58 ± 0.38
4,AAAAAAAAAATTATATATATATCCCTTATTTTTTCT [TGCATGCA_negctrl_site151],7.54 ± 0.36
5,TATACATAGAAACACACACACATAAATAAATATATA [CACACA_site1342],7.76 ± 0.3
6,CCTTAAATAATATATTCACACAATATAACAAAAATT [CACACA_site4892],7.74 ± 0.59
7,TGGTATATAAAACACACACACATATGTATATATATA [CACACA_site926],8.73 ± 0.25
8,AAAAAAAAGAATTAGGCACACAATTTTAATATAGGA [CACACA_site1522],8.03 ± 0.65
9,GCATACATCAAGCACACACACACACGCACACGCACA [CACACA_site6311],8.59 ± 0.55
10,ACTACGAATGGTAGAGTGCAGTCTGGAGAAGAGTAC [GTGCAC_site9685],9.21 ± 0.3
11,TTATGTTTCATAAAAAATTAATCAAACATATATAAG [CACACA_negctrl_site666],7.28 ± 0.2
12,TTATGGATGGACAATAATAAAATTTTTACTTTTATT [CACACA_negctrl_site908],7.62 ± 0.49
13,GTGAAGTTCAAAATATGTACTTATGTATGTATTTTT [XGTACX_site165],7.57 ± 0.36
14,TATAAGAAATAAAACCTGATTATAAACCTGTAACCA [CACACA_negctrl_site1302],7.46 ± 0.53
15,TAAATATAACAGAATAATATGTGGATTAATAAATGA [CACACA_negctrl_site438],7.81 ± 0.59
16,AAAAAAAAAAAAAAAACACACATGTATACTAGAATA [CACACA_site7108],8.61 ± 0.46
17,TTAAGTTACAATTCTCGTACACATTAAAAGAAAATT [XGTACX_site699],7.72 ± 0.43
18,ATATAATATGTTGAATGTACTTAAAAAAATGTATCT [XGTACX_site5385],7.72 ± 0.46
19,TTACAAATGTAGAAAAGTACATATAATAATAATTTA [XGTACX_site3044],7.66 ± 0.53
20,GGTAGAAAATCAGTTAAACACACACCGAAAAAAAAA [CACACA_site8934],8.06 ± 0.6
21,ATTTGTATAATAAGTTGTACAATTCTTACAATATAA [XGTACX_site4164],7.77 ± 0.26
22,AAAAAAAAAAAAAGCACACACACATATGCGTATATA [CACACA_site953],8.46 ± 0.42

row,Sequence,gcPBM binding intensity (ln)
1,TTTAAGCGTTCACTGCTGCACTTTTATGTTGTGACC,8.71 ± 0.35
2,ATGGATAATAATAAGTGTACACATATATTTAGAAGA [XGTACX_site244],8.13 ± 0.38
3,TTTGTTCAATTTACATGTACAGATATAATCTAACAT [XGTACX_site370],7.68 ± 0.34
4,ATTTTTATTTTATATACACACAATAATAATATAATA [CACACA_site4015],7.83 ± 0.43
5,TCTATTAAAACAAATTGTACTTATTGATAAAGAATA [XGTACX_site3645],7.795 ± 0.007
6,TCCTATTTTATATAATGTACATAAATATATTACATA [XGTACX_site2720],7.85 ± 0.34
7,AAGAGCAACCAAATAGAAAAAGGAAAATAAAAGGAA [CACACA_negctrl_site100],7.56 ± 0.71
8,AAATTTTTTTTTTAATTTTTTATTTAAAAAAAATAT [TGCATGCA_negctrl_site174],7.42 ± 0.33
9,GTTATAAATAAATATACACACATATATAAAATACAT [CACACA_site7146],7.68 ± 0.58
10,TATAACATAAAACACACACACATACATACACAAAAA [CACACA_site1804],8.04 ± 0.32
11,CGCTTTATTTATATATGTACATATATATATATATAC [XGTACX_site5012],7.96 ± 0.42
12,AAGGCAAACAGACACACACACATATATACCTATATA [CACACA_site7077],7.86 ± 0.62
13,GTTGCCATCATTTGGCGTACAGTCAAAACCAAATCT [XGTACX_site1398],7.91 ± 0.45
14,GTTATACACATTACATGTACAAAAGTTGCACTTCAT [XGTACX_site6023],8.79 ± 0.13
15,ATTATAAGAAGGGGGGGTACATAAATATAAATGTAT [XGTACX_site5624],10.1 ± 0.23
16,TTAATAATTAATTATAGTACACATTTATATTAATAA [XGTACX_site190],7.915 ± 0.064
17,TTATTTAAAAAATTTTTAAATATACAAAAAAAAAAA [TGCATGCA_negctrl_site464],7.82 ± 0.86
18,TTTAATTTTCGGTGTGCACACAACTATGAGTTTTTA [CACACA_site3034],9.565 ± 0.035
19,TTTAAAAAAAAAAATACACACATAAAAATTTTCAAA [CACACA_site703],7.46 ± 0.54
20,ATATAAATAAAATATACACACATAAATATAACGACA [CACACA_site1637],7.93 ± 0.59
21,AACATTTCCTTTCTGTGTACATATAAACCCATCTAT [XGTACX_site2071],8.13 ± 0.64
22,ACGAAGATTTATCTTGCACACGCAAAAAAAAAAAAA [CACACA_site7933],8.79 ± 0.47
